# Laboratory results from the antibiotic and cytotoxicity screens of Wong et al. (2023).
# This is one part of the list.
# Key:
# HSkMC = human skeletal muscle cells; test: cytotoxicity call (relative viability < 0.9); details: 10 µM
# HepG2 = test: cytotoxicity call (relative viability < 0.9); details: 10 µM
# S. aureus RN4220 = test: growth inhibition call (relative growth <= 0.2); details: 50 µM
SMILES,cytotoxicity call (HSkMC),cytotoxicity call (HepG2),growth inhibition call (S. aureus RN4220)
Cc1noc(C)c1NC(=O)N(C)C[C@@H]1Oc2ccc(NC(=O)Nc3cccc4ccccc34)cc2C(=O)N([C@H](C)CO)C[C@@H]1C,inactive,inactive,inactive
COc1ccc(NC(=O)N(C)C[C@H]2OCc3cn(nn3)CCCC(=O)N([C@@H](C)CO)C[C@H]2C)c(OC)c1,inactive,inactive,inactive
Cc1noc(C)c1S(=O)(=O)N(C)C[C@H]1Oc2ccc(NC(=O)Cc3ccccc3)cc2CC(=O)N([C@H](C)CO)C[C@@H]1C,inactive,inactive,inactive
C[C@H]1CCCCO[C@H](CN(C)CC2CCCCC2)[C@@H](C)CN([C@@H](C)CO)C(=O)c2cc(NC(=O)Nc3ccc4c(c3)OCO4)ccc2O1,inactive,active,inactive
C[C@H](CO)N1C[C@H](C)[C@@H](CN(C)S(=O)(=O)c2ccccc2)Oc2c(NS(=O)(=O)c3cccs3)cccc2C1=O,inactive,inactive,inactive
N[C@@H]1CC[C@@H](c2ccc(Cl)c(Cl)c2)c2ccccc21,active,active,active
CCCCCCCCCc1ccc(OCCOCCOCCOCCOCCOCCOCCOCCOCCO)cc1,inactive,active,inactive
O=C1c2c(O)ccc(O)c2C(=O)c2c(NCCNCCO)ccc(NCCNCCO)c21,active,active,inactive
COc1ccc(S(=O)(=O)Nc2ccc3c(c2)C(=O)N([C@H](C)CO)C[C@H](C)[C@@H](CN(C)C(=O)NC2CCCCC2)OCCCC[C@H](C)O3)cc1,inactive,inactive,inactive
Cc1noc(C)c1NC(=O)Nc1cccc2c1O[C@H](CN(C)Cc1ccc(C(=O)Nc3ccccc3N)cc1)[C@H](C)CN([C@H](C)CO)C2=O,inactive,inactive,inactive
COc1ccc2c3c(n(c2c1)C)[C@@H](CO)N(Cc1ccccc1Cl)C[C@]13CCN(CC1)C(=O)CC1CC1,inactive,inactive,inactive
C[C@@H]1CCCCO[C@@H](CN(C)CC2CC2)[C@H](C)CN([C@H](C)CO)C(=O)c2cc(NC(=O)Nc3ccc(C(F)(F)F)cc3)ccc2O1,inactive,inactive,inactive
COc1ccc(NC(=O)Nc2ccc3c(c2)C(=O)N([C@H](C)CO)C[C@@H](C)[C@H](CN(C)C(=O)c2ccccc2)OCCCC[C@@H](C)O3)cc1,inactive,inactive,inactive
CN(C)C(=N)N=C(N)N,inactive,inactive,inactive
C/C=C\C=C/[C@@H]1O[C@](O)([C@@H](CC)C(=O)NC/C=C\C=C(\C)[C@@H](OC)[C@@H](C)[C@H]2O[C@@H](\C=C/C=C\C=C(\C)C(=O)c3c(O)cc[nH]c3=O)[C@@H](O)[C@@H]2O)[C@@H](O)[C@H](O)C1(C)C,inactive,inactive,inactive
C[C@@H]1CN([C@H](C)CO)C(=O)c2cc(NC(=O)Nc3ccc(C(F)(F)F)cc3)ccc2O[C@@H]1CN(C)Cc1ccc(C(F)(F)F)cc1,active,active,inactive
C[C@@H]1CCCCO[C@H](CN(C)S(=O)(=O)c2ccc(F)cc2)[C@@H](C)CN([C@@H](C)CO)C(=O)c2cc(NS(C)(=O)=O)ccc2O1,inactive,inactive,inactive
O=C(NCc1ccccc1)[C@@]1(CCS(=O)(=O)c2ccccc2)COC(c2ccc(OCCCO)cc2)=N1,inactive,inactive,inactive
C[C@H](CO)N1C[C@H](C)[C@@H](CN(C)CC2CCCCC2)Oc2c(NC(=O)Cn3cnnn3)cccc2C1=O,inactive,inactive,inactive
C[C@@H]1CN([C@H](C)CO)C(=O)c2cc(NC(=O)Nc3ccc4c(c3)OCO4)ccc2O[C@H]1CN(C)S(=O)(=O)c1cn(C)cn1,inactive,inactive,inactive
N[C@@H]1CC[C@H](CCn2cc(-c3ccccn3)nn2)O[C@H]1CO,inactive,inactive,inactive
Cc1ccc(S(=O)(=O)Nc2cccc3c2O[C@H](CN(C)S(=O)(=O)c2ccccc2)[C@@H](C)CN([C@@H](C)CO)C3=O)cc1,inactive,inactive,inactive
C[C@@H]1CN([C@@H](C)CO)C(=O)Cc2cc(NS(=O)(=O)c3cn(C)cn3)ccc2O[C@H]1CN(C)S(=O)(=O)c1ccccc1,inactive,inactive,inactive
COCC(=O)Nc1ccc2c(c1)C(=O)N(C)C[C@H](OC)[C@H](C)CN(Cc1ccccc1F)[C@@H](C)CO2,inactive,inactive,inactive
CC(C)(C)c1n[nH]c(C(C)(C)C)c1Cc1c(F)cccc1Cl,inactive,inactive,inactive
